Assay results from patent US20260209359A1 (NEXTERA, published 2026).

What was measured:
[1] = biological target: T1, HLA-A*02:01/MAGE-A4^230-239 displayed on cells (MAGE-A4^230-239 pulsed T2 cells; NCI-H1703, A375, THP1, … (human, UniProt P04439 25-365 at identity 0.94); P61769 in part); test: cell-based or functional assay
[2] = biological target: T2, HLA-A*02:01/MAGE-A4^230-239, soluble recombinant biotinylated pHLA (human, UniProt P04439 25-299 at identity 0.94); P61769 in part, biotinylated); test: ELISA, soluble biotinylated pHLA on neutravidin, scDb, protL-HRP
T2 construct: Empty biotinylated HLA-A2 monomers (Tetramer Shop) loaded with synthetic peptide; also called MAGE-A4 pMHC; MAGE-A4-pHLA

[3] = biological target: T2, HLA-A*02:01/MAGE-A4^230-239, soluble …; test: SPR, biotinylated pHLA on neutravidin chip, scDb without His-tag injected (Assay 6-2)
[4] = biological target: T1, HLA-A*02:01/MAGE-A4^230-239 displayed …; test: cell-based or functional assay; remark: listed apart in the source
[5] = biological target: T1, HLA-A*02:01/MAGE-A4^230-239 displayed …; test: cell-based or functional assay; remark: listed apart in the source
[6] = biological target: T1, HLA-A*02:01/MAGE-A4^230-239 displayed …; test: cell-based or functional assay; remark: listed apart in the source
[7] = biological target: T3, HLA-A*02:01 loaded with MAGE-B2 homologue peptide, soluble biotinylated (human, UniProt P04439 25-299 at identity 0.94); P61769 in part, biotinylated); test: pHLA capture ELISA: biotinylated pHLA on neutravidin, scFv-phage, anti-M13 antibody detection [cont.) D]
T3 construct: HLA monomer as for m1

[8] = biological target: T4, HLA-A*02:01 loaded with MAGE-A3 homologue peptide, soluble biotinylated (human, UniProt P04439 25-299 at identity 0.94); P61769 in part, biotinylated); test: as above
T4 construct: HLA monomer as for m1

[9] = biological target: T5, HLA-A*02:01 loaded with MAGE-A2 homologue peptide, soluble biotinylated (human, UniProt P04439 25-299 at identity 0.94); P61769 in part, biotinylated); test: as above
T5 construct: HLA monomer as for m1

[10] = biological target: T6, HLA-A*02:01 loaded with MAGE-B4 homologue peptide, soluble biotinylated (human, UniProt P04439 25-299 at identity 0.94); P61769 in part, biotinylated); test: as above
T6 construct: HLA monomer as for m1

[11] = biological target: T7, HLA-A*02:01 loaded with MAGE-C2 homologue peptide, soluble biotinylated (human, UniProt P04439 25-299 at identity 0.94); P61769 in part, biotinylated); test: as above
T7 construct: HLA monomer as for m1

[12] = biological target: T8, HLA-A*02:01 loaded with MAGE-A1 homologue peptide, soluble biotinylated (human, UniProt P04439 25-299 at identity 0.94); P61769 in part, biotinylated); test: as above
T8 construct: HLA monomer as for m1

[13] = biological target: T9, HLA-A*02:01 loaded with MAGE-B6 homologue peptide, soluble biotinylated (human, UniProt P04439 25-299 at identity 0.94); P61769 in part, biotinylated); test: as above
T9 construct: HLA monomer as for m1

[14] = biological target: T10, HLA-A*02:01 loaded with MAGE-B10 homologue peptide, soluble biotinylated (human, UniProt P04439 25-299 at identity 0.94); P61769 in part, biotinylated); test: as above
T10 construct: HLA monomer as for m1

[15] = biological target: T11, HLA-A*02:01 loaded with MAGE-A9 homologue peptide, soluble biotinylated (human, UniProt P04439 25-299 at identity 0.94); P61769 in part, biotinylated); test: as above
T11 construct: HLA monomer as for m1

[16] = biological target: T12, HLA-A*02:01 loaded with MAGE-A12 homologue peptide, soluble biotinylated (human, UniProt P04439 25-299 at identity 0.94); P61769 in part, biotinylated); test: as above
T12 construct: HLA monomer as for m1

[17] = biological target: T13, HLA-A*02:01 loaded with MAGE-A10 homologue peptide, soluble biotinylated (human, UniProt P04439 25-299 at identity 0.94); P61769 in part, biotinylated); test: as above
T13 construct: HLA monomer as for m1

[18] = biological target: T14, HLA-A*02:01 loaded with MAGE-A11 homologue peptide, soluble biotinylated (human, UniProt P04439 25-299 at identity 0.94); P61769 in part, biotinylated); test: as above
T14 construct: HLA monomer as for m1

| Binder | EC50 vs. NCI-H1703 (pM), T-cell specific killing [1] [pM] | EC50 [2] [nM] | Kd [3] [nM] | IFNγ EC50 vs. target positive cells (pM) [4] [pM] | EC50 vs. C-33-A (pM), T-cell specific killing [5] [pM] | EC50 vs. HuTu80 (pM), T-cell specific killing [5] [pM] | EC50 vs. A375 (pM), T-cell specific killing [6] [pM] | binding result [7] | binding result [8] | binding result [9] | binding result [10] | binding result [11] | binding result [12] | binding result [13] | binding result [14] | binding result [15] | binding result [16] | binding result [17] | binding result [18] |
| --- | --- | --- | --- | --- | --- | --- | --- | --- | --- | --- | --- | --- | --- | --- | --- | --- | --- | --- | --- |
| AM13 scDb (bispecific antibody, as m68; without a His-tag in the SPR assay) [about 100 residues not written out]FGPGTKVDIKGGGGSEVQLQQSGPELVKPGASMKISCKASGYSFTGYTMNWVKQSHGKNLEWMGLINPYKGVSTYNQKFKDKATLTVDKSSSTAYMELLSLTSEDSAVYYCARSGYYGDSDWYFDVWGAGTTVTVSSGGGGSGGGGSGGGGSDIQMTQTTSSLSASLGDRVTISCRASQDIRNYLNWYQQKPDGTVKLLIYYTSRLHSGVPSKFSGSGSGTDYSLTISNLEQEDIATYFCQQGNTLPWTFAGGTKLEIKGGGGSQVQLVQSGAEVKKPGASVKVSCKVSGYTLTELSMHWVRQAPGKGLEWMGGFDPYLARTIYAQKFQGRVTMTEDTSTDTAYMELSSLRSEDTAVYYCATDQGASWGFYWGQGTLVTVSS | 3.9 | 0.43 | 7 | 5.8 | – | – | – | – | – | – | – | – | – | – | – | – | – | – | – |
| AM15 scDb (bispecific antibody, as m68) [about 100 residues not written out]FGPGTKVDIKGGGGSEVQLQQSGPELVKPGASMKISCKASGYSFTGYTMNWVKQSHGKNLEWMGLINPYKGVSTYNQKFKDKATLTVDKSSSTAYMELLSLTSEDSAVYYCARSGYYGDSDWYFDVWGAGTTVTVSSGGGGSGGGGSGGGGSDIQMTQTTSSLSASLGDRVTISCRASQDIRNYLNWYQQKPDGTVKLLIYYTSRLHSGVPSKFSGSGSGTDYSLTISNLEQEDIATYFCQQGNTLPWTFAGGTKLEIKGGGGSQVQLVQSGAEVKKPGASVKVSCKVSGYTLTELSMHWVRQAPGKGLEWMGGFDPEDGETIYAQKFQGRVTMTEDTSTDTAYMELSSLRSEDTAVYYCATDQGSSWGFYWGQGTLVTVSS | 2.2 | 1.36 | – | 10.6 | 11 | 7.1 | 4.2 | – | – | – | – | – | – | – | – | – | – | – | – |
| AM15 scFv displayed on phage (scFv, scFv on the surface of phage particles; also called AM15 phages) scFv: QVQLVQSGAEVKKPGASVKVSCKVSGYTLTELSMHWVRQAPGKGLEWMGGFDPEDGETIYAQKFQGRVTMTEDTSTDTAYMELSSLRSEDTAVYYCATDQGSSWGFYWGQGTLVTVSSKLSGSASAPKLEEGEFSEARV[about 100 residues not written out]FGPGTKVDIK | – | – | – | – | – | – | – | no binding (tested: 10^9 phages/well) | no binding (tested: 10^9 phages/well) | no binding (tested: 10^9 phages/well) | no binding (tested: 10^9 phages/well) | no binding (tested: 10^9 phages/well) | no binding (tested: 10^9 phages/well) | no binding (tested: 10^9 phages/well) | no binding (tested: 10^9 phages/well) | no binding (tested: 10^9 phages/well) | no binding (tested: 10^9 phages/well) | no binding (tested: 10^9 phages/well) | no binding (tested: 10^9 phages/well) |
